Among all 310,000 compounds or so, about 2,200 (0.71%) showed an effect of 50% or more. Effects have a minus sign here. This is one part of the list.
Biological target: human ether-à-go-go-related gene (hERG) potassium channel (human, UniProt Q12809)
Assay: primary screen, population patch clamp on CHO cells stably expressing hERG

Sequence of human ether-à-go-go-related gene (hERG) potassium channel (Q12809 whole entry, looked up): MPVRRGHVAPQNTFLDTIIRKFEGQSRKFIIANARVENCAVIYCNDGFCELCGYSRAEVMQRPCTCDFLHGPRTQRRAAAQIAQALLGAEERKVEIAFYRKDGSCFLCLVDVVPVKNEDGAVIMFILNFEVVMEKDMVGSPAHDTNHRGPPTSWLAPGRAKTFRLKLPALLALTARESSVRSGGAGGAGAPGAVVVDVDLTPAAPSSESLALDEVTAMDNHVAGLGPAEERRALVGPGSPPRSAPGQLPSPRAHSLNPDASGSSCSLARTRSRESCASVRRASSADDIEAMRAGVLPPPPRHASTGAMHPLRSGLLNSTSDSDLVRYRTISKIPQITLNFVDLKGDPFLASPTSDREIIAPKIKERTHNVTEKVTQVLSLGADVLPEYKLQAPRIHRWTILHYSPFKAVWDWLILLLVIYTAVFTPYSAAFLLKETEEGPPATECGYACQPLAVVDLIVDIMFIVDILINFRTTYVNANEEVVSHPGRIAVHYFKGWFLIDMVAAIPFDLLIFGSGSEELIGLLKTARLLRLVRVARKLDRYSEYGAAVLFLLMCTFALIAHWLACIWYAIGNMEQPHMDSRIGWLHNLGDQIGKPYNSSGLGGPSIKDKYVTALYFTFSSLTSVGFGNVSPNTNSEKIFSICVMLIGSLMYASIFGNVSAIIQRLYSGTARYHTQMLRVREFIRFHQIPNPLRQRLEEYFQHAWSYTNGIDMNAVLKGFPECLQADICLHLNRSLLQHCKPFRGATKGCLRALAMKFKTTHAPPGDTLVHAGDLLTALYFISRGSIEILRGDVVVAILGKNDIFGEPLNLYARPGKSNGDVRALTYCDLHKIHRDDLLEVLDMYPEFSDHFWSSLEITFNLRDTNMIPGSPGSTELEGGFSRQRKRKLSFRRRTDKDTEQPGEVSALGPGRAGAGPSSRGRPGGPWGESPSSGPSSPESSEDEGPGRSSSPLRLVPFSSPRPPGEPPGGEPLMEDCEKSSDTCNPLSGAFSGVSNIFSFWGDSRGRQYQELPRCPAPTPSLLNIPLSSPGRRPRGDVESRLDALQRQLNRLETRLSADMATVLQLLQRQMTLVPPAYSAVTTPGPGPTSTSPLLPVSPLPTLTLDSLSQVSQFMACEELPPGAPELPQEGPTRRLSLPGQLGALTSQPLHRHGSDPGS

First: CCCOc1ccc(/C=N/NC(=O)CSc2ccccn2)cc1OC
Second: COc1cccc2[nH]c(C(=O)NCCc3ccccc3)cc12
The “hERG current change (%, negative = inhibition) at 1uM” value of the first is higher: 12.1% for the first, 3.62% for the second.

First: O=[N+]([O-])c1ccc(N2CCNCC2)cc1NCc1cccnc1
Second: Brc1cccc(Nc2nc(-c3cccnc3)cs2)c1
The “hERG current change (%, negative = inhibition) at 1uM” value of the first is lower: 6.58% for the first, 22% for the second.

First: CC(Oc1ccc2c3c(c(=O)oc2c1)CCC3)C(=O)NCCN1CCOCC1 (stereo not drawn)
Second: O=C(Cn1c(=O)oc2cc(S(=O)(=O)N3CCc4ccccc43)ccc21)N1CCCCC1
The “hERG current change (%, negative = inhibition) at 1uM” value of the first is higher: 17.8% for the first, 9.27% for the second.

First: O=C(N/N=C/c1cccc([N+](=O)[O-])c1)C(=O)N1CCCCCC1
Second: C=CCN1C(=O)c2ccc(C(=O)N3CCN(S(=O)(=O)c4cccc(Cl)c4)CC3)cc2C1=O
The “hERG current change (%, negative = inhibition) at 1uM” value of the first is lower: -22% for the first, 12.4% for the second.

Compared with `Cc1cc(C(=O)COC(=O)C23CC4CC(CC(O)(C4)C2)C3)c(C)n1-c1c(C)n(C)n(-c2ccccc2)c1=O`, `Cc1c(N2C(=O)CSC2c2ccc(F)cc2)c(=O)n(-c2ccccc2)n1C` (stereo not drawn) is higher in “hERG current change (%, negative = inhibition) at 1uM” value: 10.6% for the first, 13.7% for the second.

Going from `CCOC(=O)c1nnn(-c2nonc2N)c1C` to `CCOC(=O)CSc1nc(C)cc(Oc2ccc(=O)n(C)n2)n1`, the “hERG current change (%, negative = inhibition) at 1uM” value rises from 5.7% to 10.4%.

Going from `NNC(=S)NC1CCCCCCCCCCC1` to `Cl.Clc1ccc(CNC2CN3CCC2CC3)cc1` (stereo not drawn), the “hERG current change (%, negative = inhibition) at 1uM” value falls from -3.63% to -5.15%.

First: O=C1CC(c2cccc(Br)c2)C2=C(COC2=O)N1 (stereo not drawn)
Second: O=S(=O)(NCC1CCCO1)c1ccc2ccccc2c1 (stereo not drawn)
The “hERG current change (%, negative = inhibition) at 1uM” value of the first is lower: 3.73% for the first, 7.28% for the second.

Going from `Cc1nnc(C)n1/N=C/c1cc(Br)ccc1O` to `Cc1ccc(C)c(N2CC(C(=O)Nc3nccs3)CC2=O)c1` (stereo not drawn), the “hERG current change (%, negative = inhibition) at 1uM” value rises from 15.9% to 19.2%.

Going from `CN(NS(=O)(=O)c1ccc(Cl)cc1)c1cnn(C)c(=O)c1Cl` to `CSc1nc2ccc(S(=O)(=O)N3CCc4ccccc43)cc2s1`, the “hERG current change (%, negative = inhibition) at 1uM” value falls from 15.8% to -13.1%.

Compared with `C=CCn1c(=O)/c(=C/c2ccc(C)o2)s/c1=C(/C#N)C(=O)c1ccccc1`, `O=C(c1ccccc1)N1CCC(=O)N1c1ccccc1` is lower in “hERG current change (%, negative = inhibition) at 1uM” value: 12.7% for the first, 8.41% for the second.

Going from `CCOC(=O)C1=NNC2(c3ccc(C)cc3)C(=O)N(c3ccccc3)C(=O)C12` (stereo not drawn) to `COc1cc(/C=C/c2nc3ccccc3c(=O)n2-c2ccccc2O)ccc1O`, the “hERG current change (%, negative = inhibition) at 1uM” value rises from 7.73% to 11.8%.

Compared with `N#CCCN(CCC#N)c1nnc(-c2ccccc2)s1`, `CC(C)Cc1cc(C(=O)NCCc2ccccc2)no1` is higher in “hERG current change (%, negative = inhibition) at 1uM” value: -3.09% for the first, 11.9% for the second.

Going from `CCN(CCn1cccn1)C(=O)CCc1nnc(-c2ccc3c(c2)OCO3)o1` to `CC(C)(C)n1nnnc1C(c1ccc2ncccc2c1)N1CCC(O)CC1` (stereo not drawn), the “hERG current change (%, negative = inhibition) at 1uM” value rises from 7.64% to 15.4%.

First: CCSc1nnc(NC(=O)CSc2sc3c(O)cc(=O)[nH]c3c2C#N)s1
Second: Cc1ccc(O)c(C(=O)c2cc(C#N)c(=O)n(-c3nccs3)c2)c1
The “hERG current change (%, negative = inhibition) at 1uM” value of the first is lower: 8.05% for the first, 11.1% for the second.

First: COc1cccc(NC(=S)N(CCN(C)C)C(C)c2ccco2)c1 (stereo not drawn)
Second: CCn1c(NCc2cccc(OC)c2OC)nc2ccccc21
The “hERG current change (%, negative = inhibition) at 1uM” value of the first is higher: 8.16% for the first, -3.11% for the second.

First: Cc1cc(C(F)(F)F)c2c(N)c(C(=O)Nc3cc(C)on3)sc2n1
Second: Cc1ccc(NC(=O)COC(=O)Cn2cnc3c2c(=O)n(C)c(=O)n3C)c(Cl)c1
The “hERG current change (%, negative = inhibition) at 1uM” value of the first is lower: 11.5% for the first, 13.3% for the second.

Compared with `COc1cc(OC)c2c(=O)cc(-c3ccccc3)oc2c1`, `CCOC(=O)C1(CCOc2ccccc2)CCN(Cc2ccc(COC)o2)CC1` is lower in “hERG current change (%, negative = inhibition) at 1uM” value: 4.72% for the first, -41.9% for the second.

First: Nc1ccc(N=Nc2ccc(N)cc2)cc1
Second: O=C(c1ccco1)N1N=C(c2ccc(Br)cc2)CC1(O)C(F)(F)F (stereo not drawn)
The “hERG current change (%, negative = inhibition) at 1uM” value of the first is lower: 9.95% for the first, 14% for the second.

Going from `CCCc1nc(SCC(N)=O)[nH]c(=O)c1CC` to `CC(C)c1nc(CNC(=O)CC2C(=O)NCCN2Cc2ccoc2)cs1` (stereo not drawn), the “hERG current change (%, negative = inhibition) at 1uM” value rises from 9.07% to 13.4%.

Going from `COc1ccc(Br)cc1CN(C)CC(=O)NCc1ccc(F)cc1.O=C(O)C(=O)O` to `c1ccc(CN2CCC(=NNc3nc4ccccc4[nH]3)CC2)cc1`, the “hERG current change (%, negative = inhibition) at 1uM” value falls from 8.2% to 6.93%.

Compared with `C=CCN1C(=O)NC(=O)/C(=C/c2ccoc2)C1=O`, `CCCSc1nc(N)c(C#N)c(-c2ccc(C)cc2)c1C#N` is higher in “hERG current change (%, negative = inhibition) at 1uM” value: 9% for the first, 15.6% for the second.

With `CCN=C(NC#N)SCc1c(F)cccc1Cl` the “hERG current change (%, negative = inhibition) at 1uM” value was 11.8%.

Reference: PMC4336329 (PLoS ONE, 2015)
